This note sets out measurements from PMC6212790.

The list shows a part of the results. At the low end of the ranking the order means little.

This test deals with T1, GST-Rok-C97-191 (UniProt O34857).
T1 sequence: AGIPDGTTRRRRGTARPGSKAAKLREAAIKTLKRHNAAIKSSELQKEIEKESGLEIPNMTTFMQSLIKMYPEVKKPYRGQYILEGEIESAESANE
Kind of test: protein binding microarray.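 Further: rank score from −0.5 (least bound) to 0.5 (best bound).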 The conditions noted are these: Rok is a gene silencer of Bacillus subtilis; high values mean tight binding; most listed sequences are background and not binding sites; double strand, one strand shown.
Turning to AAGGGGCC, the binding signal was -0.321 E-score.
In turn, CTCTCGAA showed a binding signal of 0.0245 E-score.
Turning to AGCCTGGA, the binding signal was -0.197 E-score.
Take AGGAGGAA: the binding signal is -0.0927 E-score.
For the sequence CGTTCCTA, the binding signal was 0.0168 E-score.
As for GACTCAAA, the binding signal is -0.0688 E-score.
Regarding AGACCACC, the binding signal is -0.21 E-score.
AACCATCT had a binding signal of 0.0317 E-score.
As for CGCACTCA, the binding signal is -0.138 E-score.
For GCTGTTAC, the binding signal worked out at 0.0773 E-score.
GTTCGAAC displayed a binding signal of 0.133 E-score.
For CTTGGTTC, the binding signal is 0.0268 E-score.
Consider CGAAGGAC, for which the binding signal was -0.192 E-score.
To CGGCACCC belongs -0.299 E-score.
To TACTCCAA belongs 0.0607 E-score; to CGTCCGAA, -0.115 E-score; to CCTCGAAA, -0.00929 E-score.
As for CGTGATGA, the binding signal was -0.0667 E-score.
The sequence AGGACTAT returned a binding signal of 0.145 E-score.
CGCACCTA: the binding signal was 0.037 E-score.
To CTAGAAGC belongs -0.138 E-score.
On to AAATTCTT, for which the binding signal stood at 0.105 E-score.
Turning to CGAGGTCC, the binding signal was -0.0508 E-score.
Consider GCGATTCA, for which the binding signal is -0.0584 E-score.
With AATCGATT, the binding signal was -0.107 E-score.
To CATTTCAA belongs 0.114 E-score; to CAACCGAA, 0.0469 E-score; to AAGTCACA, -0.000968 E-score.
In turn, CACTTAGC returned a binding signal of 0.0257 E-score.
As for CCAGCCCC, the binding signal is -0.338 E-score.
Regarding AACGACTG, the binding signal was -0.182 E-score.
With AGGCCATC, the binding signal was -0.164 E-score.
Regarding CGGCACGA, the binding signal was -0.274 E-score.
TACCCAAA gave a binding signal of 0.0353 E-score.
Turning to AACCCCTC, the binding signal is -0.123 E-score.
As for CGGGCATA, the binding signal is -0.0964 E-score.
ATTTCTTA: the binding signal was determined as 0.151 E-score.
To ACATGCTC belongs 0.0356 E-score; to AATGCGAA, 0.0558 E-score.
CTAGCATC registered a binding signal of 0.141 E-score.
Take CGCTTGCC: the binding signal was -0.202 E-score.
GTGACCCA: the binding signal is -0.0919 E-score.
For the sequence GACATGCA, the binding signal was -0.183 E-score.
As for CCTCCTCA, the binding signal is -0.178 E-score.
The sequence TAGAAGCA gave a binding signal of 0.197 E-score.
Regarding CTATCCAA, the binding signal was -0.0742 E-score.
In the case of AACCGTGT, the binding signal was -0.0625 E-score.
As to TGCACAAA, the binding signal was -0.0954 E-score.
Consider CAAGACCC, for which the binding signal was -0.281 E-score.
To CGAGCCAG belongs -0.244 E-score; to CAAGATTA, 0.0918 E-score.
Turning to ATGCCAAA, the binding signal was -0.208 E-score.
Turning to AGTATTCC, the binding signal is -0.0921 E-score.
For the sequence GTACCGAA, the binding signal was -0.0121 E-score.
Regarding TCACGAAA, the binding signal was -0.0451 E-score.
Take GGAACGCA: the binding signal was -0.0666 E-score.
To CGAATCAC belongs -0.171 E-score; to AGGTTAGC, -0.0885 E-score.
For AAAGACTA, the binding signal came to 0.111 E-score.
GGTATGAA: the binding signal is 0.119 E-score.
Turning to GGCGGTGA, the binding signal is -0.0749 E-score.
With GTGCTGCA, the binding signal was -0.0632 E-score.
Sequence CGTCGCTA gave a binding signal of 0.105 E-score.
To ATTAAGCC belongs 0.0195 E-score; to AGGTACAC, -0.106 E-score; to AGGAGTAG, 0.113 E-score.
As for CATTGTTA, the binding signal amounted to 0.145 E-score.
Regarding AAGGTTAG, the binding signal is -0.0372 E-score.
With ACGGTCGA, the binding signal is -0.0568 E-score.
AGTCGACC: the binding signal was -0.0544 E-score.
To CATGATTC belongs -0.00639 E-score; to AATCAAGT, 0.0582 E-score; to CGTACGAG, -0.023 E-score.
For the sequence ATATGCTG, the binding signal came to 0.0765 E-score.
Sequence GTCTACCA displayed a binding signal of 0.15 E-score.
To AAACTGCT belongs -0.00271 E-score; to GAAAATTC, -0.0744 E-score.
Turning to CTTTCGAA, the binding signal came out at 0.00635 E-score.
As to AATATAAT, the binding signal stood at 0.23 E-score.
Turning to CGTTGTAC, the binding signal came to 0.108 E-score.
In the case of AGAGTAGG, the binding signal was -0.15 E-score.
In the case of CCCTCCTA, the binding signal was -0.199 E-score.
CAAGTATC yielded a binding signal of 0.138 E-score.
For GCGAGTCC, the binding signal is -0.172 E-score.
With AGACTGTC, the binding signal was -0.0186 E-score.
For the sequence GCTGGGTA, the binding signal was 0.0228 E-score.
To GATGCGAC belongs -0.329 E-score.
Take AGGGAGTC: the binding signal is -0.262 E-score.
As for AGTAGAGG, the binding signal was -0.235 E-score.
The sequence ATCCGTTG had a binding signal of 0.0162 E-score.
For the sequence CACATAAA, the binding signal was -0.00301 E-score.
To ATGCTGTC belongs 0.00475 E-score; to AAGTCGGG, -0.145 E-score; to CGCAAGCC, -0.217 E-score.
Sequence AATTTAGC returned a binding signal of 0.308 E-score.
For the sequence AAATTCTC, the binding signal is 0.0486 E-score.
With AAAGGCTC, the binding signal was -0.211 E-score.
With GAGCGTCC, the binding signal was -0.217 E-score.
Take ACTTAAGA: the binding signal was -0.12 E-score.
Regarding AGGTCCAG, the binding signal was -0.149 E-score.
AGCCCGAC: the binding signal was -0.237 E-score.
To GAGGAACC belongs -0.0346 E-score; to AGACATCG, -0.0827 E-score.
Turning to GTTGTCTA, the binding signal is -0.0257 E-score.
Sequence CCTTGATC gave a binding signal of 0.0208 E-score.
To AAAAGTAG belongs 0.344 E-score; to CTTGTGAA, 0.113 E-score; to AAGACCAA, -0.0146 E-score.
To GGGATACA belongs -0.0961 E-score; to ACACAAGA, 0.0921 E-score; to CCCCGCCG, -0.287 E-score.
As to ACAAACCG, the binding signal was -0.027 E-score.
To GAAGACGC belongs -0.202 E-score; to TACCTGAA, -0.017 E-score; to AGACCCAA, -0.00361 E-score.
As for CGTGCTCA, the binding signal was -0.255 E-score.
Take CCTCTCCA: the binding signal was -0.164 E-score.
As to TACGGGGA, the binding signal worked out at 0.0108 E-score.
The sequence ATGGGTTG had a binding signal of 0.153 E-score.
To CGTGCCTA belongs -0.157 E-score; to CAAATTTA, 0.31 E-score; to CTCTTTTA, 0.244 E-score.
As for CTGATCCC, the binding signal was -0.392 E-score.
In the case of AGTACTGG, the binding signal worked out at 0.0209 E-score.
Turning to ACCTGAGA, the binding signal is -0.151 E-score.
To GTAGAACA belongs 0.285 E-score; to CTTGAAAA, -0.0109 E-score; to GTCCAAAC, 0.0408 E-score.
To AGTAGAAA belongs 0.448 E-score.
For the sequence CTTTGATC, the binding signal is -0.0822 E-score.
For CTGGCTAA, the binding signal was -0.246 E-score.
TAAGATCA came in with a binding signal of 0.2 E-score.
As for ATACCCAC, the binding signal was 0.0954 E-score.
For the sequence AACCTCGT, the binding signal was -0.0628 E-score.
As to ATCCACTC, the binding signal is -0.112 E-score.
In turn, CATCATTA displayed a binding signal of 0.111 E-score.
For the sequence GGTTTCTA, the binding signal came out at 0.353 E-score.
For the sequence AGGAATCA, the binding signal is -0.0157 E-score.
AACGTTAG had a binding signal of 0.313 E-score.
To AACCGTTC belongs -0.113 E-score; to CGGATATA, 0.298 E-score; to GGTACATA, 0.192 E-score.
As for CATTGCAG, the binding signal is -0.272 E-score.
To ACCGCAGA belongs 0.0841 E-score; to AGAGCAAA, -0.158 E-score; to CGGGACAA, -0.215 E-score.
In the case of ATATCGGG, the binding signal was -0.00669 E-score.
Turning to CTCGTGTC, the binding signal is -0.355 E-score.
ACTGACCA: the binding signal was -0.00734 E-score.
CGAGAAAC displayed a binding signal of 0.0352 E-score.
CGCTCCAG: the binding signal is -0.127 E-score.
For the sequence ATTTTTTA, the binding signal came out at 0.211 E-score.
TCCAGTAA displayed a binding signal of 0.0938 E-score.
For AGATCGAT, the binding signal was determined as 0.144 E-score.
As for GCGTTCCA, the binding signal is 0.0249 E-score.
For the sequence AGTTTGGC, the binding signal was found to be 0.102 E-score.
Consider CGGAACTA, for which the binding signal turned out to be 0.262 E-score.
To CATAAATC belongs 0.107 E-score.
As to AATGGAGG, the binding signal is -0.111 E-score.
Sequence CAAGTACG yielded a binding signal of 0.156 E-score.
TGGTTAAA registered a binding signal of 0.0949 E-score.
To AATGCTCT belongs -0.019 E-score; to AGAGCGTC, -0.177 E-score.
To ATCTCCAG belongs 0.0595 E-score.
Take AGGTAAGC: the binding signal is -0.0609 E-score.
Sequence ACTTTCTA came in with a binding signal of 0.386 E-score.
As to AACTCTCT, the binding signal worked out at 0.0603 E-score.
Consider AGGGCTCC, for which the binding signal was -0.227 E-score.
Consider AAACCAAT, for which the binding signal was found to be 0.259 E-score.
AGTATGTC yielded a binding signal of 0.104 E-score.
As for GATGATTA, the binding signal was 0.156 E-score.
To CGTACCCC belongs -0.296 E-score.
